Some of the results follow.
T1: UNK ZnF1-6 (called full-length) (human, UniProt Q9C0B0 30-357)
T1 sequence: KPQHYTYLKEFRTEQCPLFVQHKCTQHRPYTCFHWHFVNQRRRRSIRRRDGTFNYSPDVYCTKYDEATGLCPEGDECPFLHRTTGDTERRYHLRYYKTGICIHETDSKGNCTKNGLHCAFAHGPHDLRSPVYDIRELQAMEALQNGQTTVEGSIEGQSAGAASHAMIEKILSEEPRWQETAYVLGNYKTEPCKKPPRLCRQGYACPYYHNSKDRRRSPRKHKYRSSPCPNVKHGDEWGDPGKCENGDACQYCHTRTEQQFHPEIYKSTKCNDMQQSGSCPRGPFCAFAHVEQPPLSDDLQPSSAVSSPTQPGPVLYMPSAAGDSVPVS

B1: ENSG00000198589:be:win_4251|CDS|ENSG00000198589|bound_else_gene|NA|bound_elsewhere_windowed (ssRNA)
RNA: GGGAGUUCUACAGUCCGACGAUCUAUAUUUGCAAGUUCUCUUGGCUUUACUGAAAUUGAAGCUGAAAAAAGUAUGUCAUCUGGAGGAAUUUUGCGGCAGUGUCUCCGACUAGUUUGUGCAGUCGCAGUAAGGAAUUGCUUGGACAACAGAGGAUUGAGCAUCA
B2: chr7:158693335:158693439:-|CDS|ENSG00000146918|unk|FALSE|unique (ssRNA)
RNA: GGGAGUUCUACAGUCCGACGAUCAAGGAAACAGAAAGAAGAAUUAUGGCAAAGGCUGAAGAAUUUAUUGACAGAUGUGUUGUUAGAAAGCCCAGUGGAUGGGUGGCAGGUAGUGGAAGCCCAGGGUGAAGACAAUAUGGAAACCAACAGAGGAUUGAGCAUCA
B3: chr5:16663783:16663884:-|3pUTR|ENSG00000145555|msi1|FALSE|bound_elsewhere (ssRNA)
RNA: GGGAGUUCUACAGUCCGACGAUCUGAGGAUACAAAAUUCACAGAUGCUCAAGUCCCUGCUAUACAGUGGUAUAAUAUUUGCAUAGAACCUGCACACAUCUUUCCUUACCCUUUAAAUCAUCUCCAGGUUACAGAUACCUAGCACAACAGAGGAUUGAGCAUCA
B4: chr1:32196422:32196614:+|3pUTR|ENSG00000084652|msi1|FALSE|unique (ssRNA)
RNA: GGGAGUUCUACAGUCCGACGAUCACAGUUGUUUCUGUGUCCUGUUCUACCCCCACUCCAGUACAUAACUACUAUGUACUGUGUAGAGCCAUUCUAUAUGCUGAAUGUUCUGCUGUUGCAAACUUGCCAGGGUAUUAGCCAGUGCAACAGAGGAUUGAGCAUCA
B5: chr21:31659700:31659757:+|5pUTR|ENSG00000142168|msi1_unk|total|mutant (ssRNA)
RNA: GGGAGUUCUACAGUCCGACGAUCCGAGGCGCGGAGGUCUGGCCUAUAAAGCCGUCGCGGAGACGGGGUGCUGGUUUGCGUCGCCGUCUCCUGCAGCGUCUGGGGUUUCCGUUGCAGUCCUCGGAACCAGGACCUCGGCGUGGCCAACAGAGGAUUGAGCAUCA
B6: chr1:88684422:88684524:+|5pUTR|ENSG00000065243|unk|total|mutant (ssRNA)
RNA: GGGAGUUCUACAGUCCGACGAUCUCGAUGAACCGGACGGAAUAAGCCGCGCCUCCAGCAGGGGCUGCGCCUCCAUGAAUCCCCCGUUGUUUUUUUUUUUUUCUUUCUCUCCCCUCUCCUCACCCCCACCCCGAGCCCCGUCCCCAACAGAGGAUUGAGCAUCA
B7: ENSG00000136451:be:win_3201|3pUTR|ENSG00000136451|bound_else_gene|NA|bound_elsewhere_windowed (ssRNA)
RNA: GGGAGUUCUACAGUCCGACGAUCAACAGUUCUAGGGGGUUGAACUACAUAGUAAAAAAAUAAAAUAAAUAGUACUUAGUGUAAAAUAAUUUUAUAAAUGAUCUUUUGUACUUUAGGACAUUAAAUUGUACAACUUUUGUAUAUCAACAGAGGAUUGAGCAUCA
B8: chr15:50499333:50499363:+|3pUTR|ENSG00000138592|msi1_unk|total|mutant (ssRNA)
RNA: GGGAGUUCUACAGUCCGACGAUCCAGGUACCAUUUAUUUCAAAACAACUUUUUCCGUCUGCUCCAAAGUUAAAAUAAUUAACCCGCUAAGCAUUAUUAUUCGACUGGUCUAAAAACUAUUGUUAUCUUUUUUUUUUCCUUUUCCAACAGAGGAUUGAGCAUCA
B9: chr19:35623844:35623945:+|3pUTR|ENSG00000249115|unk|total|mutant (ssRNA)
RNA: GGGAGUUCUACAGUCCGACGAUCUGUGUCAAGAGCAGCGGCGGUGACGCAGGUGCCGAGAUUUGUCAGAGCUCAUGCCGUUGCCGUCUUAAGGCCUGUGCAUUUCACUGCGUGGGUUACUCAAUUUAUAAAGCAAAGCCCUUACAACAGAGGAUUGAGCAUCA
B10: chr10:51697484:51697585:-|3pUTR|ENSG00000177613|unk|FALSE|unique (ssRNA)
RNA: GGGAGUUCUACAGUCCGACGAUCAAUGGGUGCAAAAAGCUGACUUCUGUAUCCCCACACUUGGAUUAGGGUUUCCCUCCUCCUAGAACCUAAUCUUAUUUUUUGUUCUUUUUCUUUCUUUCUGUUUUCCUUUUUUUUUUAAUUCAACAGAGGAUUGAGCAUCA
B11: chr11:27368498:27368690:-|CDS|ENSG00000205213|msi1|total|mutant (ssRNA)
RNA: GGGAGUUCUACAGUCCGACGAUCACCCCUUUGUUUGCCAUUUCCUACAGGUGAAACGCCAUCAUCCGGAUUCACUGUAACGUCCGUGCUAUUAAACUCACCCGCAUUUUUAUUAAUGGCCGUUAUCUACACUAAACUAUACUGCAACAGAGGAUUGAGCAUCA
B12: ENSG00000136451:be:win_2401|3pUTR|ENSG00000136451|bound_else_gene|NA|bound_elsewhere_windowed (ssRNA)
RNA: GGGAGUUCUACAGUCCGACGAUCAUUCCUAUUUAGGAGCCAAGGAGUACUUUGGAACAGUACAAAUAUAUUGCUUUAAAUUGGAAGACGCUGGAGGCACUGGGAUGUGAUAUGCCCCUCUCUCUCCCAAUCAGAGCCUGUUGACAACAGAGGAUUGAGCAUCA
B13: ENSG00000198589:be:win_501|CDS|ENSG00000198589|bound_else_gene|NA|bound_elsewhere_windowed (ssRNA)
RNA: GGGAGUUCUACAGUCCGACGAUCCGAGCUAAAGCUUUUCUUCAGUAAACUUCAAGGAGAUAAAGGACGAUGGCCUCCACAUGCUGGGAAGUUGCUGUCUGUGUUAAAGCAUAUGCCUCAGAAGUAUGGUCCUGAUGCCUUUUUCAACAGAGGAUUGAGCAUCA
B14: chr2:73268725:73269630:-|CDS|ENSG00000163013|control|control|control (ssRNA)
RNA: GGGAGUUCUACAGUCCGACGAUCCGAGAAGGAGGAGCUGGAGGAGCGCGCGUCUGAGCUCUCCCGCCAGGUGGACGUGAGCGUAGAGCUGCUGGCCUCACUCAAGCAGGACCUGGUGCACAAGGAACAGGAGCUGAGCCGCAACAACAGAGGAUUGAGCAUCA
B15: chr20:59325757:59325866:+|3pUTR|ENSG00000124205|unk|FALSE|unique (ssRNA)
RNA: GGGAGUUCUACAGUCCGACGAUCUUAUGUGGAUCUGUUCAAAGUAGUCACUGUAUAUACGUAUAGAGAGGUAGAUAGGUAGGUAGAUUUUAAAUUGCAUUCUGAAUACAAACUCAUACUCCUUAGAGCUUGAAUUACAUUUUUCAACAGAGGAUUGAGCAUCA
B16: chr12:123662440:123662541:+|3pUTR|ENSG00000111358|unk|FALSE|unique (ssRNA)
RNA: GGGAGUUCUACAGUCCGACGAUCAAUGGAAAUCACAAUUUUAAGUCUAGGAAAUAAAGUAUUAUAUAUACUUUCAAACAAGCUAGCAAGGCUUUUAUUAUUACUUUUUUAUUUGAAAUAUCUUAUAUAUUUGGUUAGUUCUGUCAACAGAGGAUUGAGCAUCA
B17: chr1:205790044:205790145:-|3pUTR|ENSG00000133065|msi1|total|mutant (ssRNA)
RNA: GGGAGUUCUACAGUCCGACGAUCAGAUUCUUCUGCCUCUUUCUCCUUUCCAGACCCCUACUCUGUGCAGUGCUGACCACAGCCCGAGCCACCGCCCCAUUGCUCAACCAGUAUUUAUUUCCCUAAACGACCCUUCCUCACAUUCAACAGAGGAUUGAGCAUCA
B18: ENSG00000107863:be:win_851|CDS|ENSG00000107863|bound_else_gene|NA|bound_elsewhere_windowed (ssRNA)
RNA: GGGAGUUCUACAGUCCGACGAUCUGUUAUCCAAUAGAAACAACCAUACAGGUCCUUCACAUAGAACUGAAGAAGUGAGGUAUGGCGUGAGUGAGCAGACCUCUUUAAAAACAGUGUCAAGAACCACAUCACCACCAUUAUCAACAACAGAGGAUUGAGCAUCA
B19: chr10:78035461:78035635:+|CDS|ENSG00000138326|unk|total|mutant (ssRNA)
RNA: GGGAGUUCUACAGUCCGACGAUCCAUUGAUGUCCUUCACCCCGGGAAGGCGACAGUGCCUAAGACAGAAAUUCGGGAAAAACCCGCCAAAAUGUACAAGACCACACCGGAUGUCAUCUUUGUAUUUGGAUUCAGAACUCAUUUCAACAGAGGAUUGAGCAUCA
B20: ENSG00000198589:be:win_5201|CDS|ENSG00000198589|bound_else_gene|NA|bound_elsewhere_windowed (ssRNA)
RNA: GGGAGUUCUACAGUCCGACGAUCCAGUCUCACCUUCCACCUUUAAUACAAGCAUACCUACCAAUGCUGUCAGUGUGGUUUCCUCAGUAGAUUCAGCCCAAGCCUCAGAUAUGGGAGGAGAAUCACCAGGCAGUAGAUCAUCUACAACAGAGGAUUGAGCAUCA
B21: chr6:36855602:36855703:-|3pUTR|ENSG00000137168|msi1|FALSE|unique (ssRNA)
RNA: GGGAGUUCUACAGUCCGACGAUCGUCAUGAAGCUUAGGAGGCCUGGCAUCUUGGGUGAGUUAGAGAUGGAAGUACAUUUUAAUAGGAUGCUUCUUUUCUCUUCCCCCAGUGCCUAGGUUGCCAGAGCAUUUGCACAAAUGCCCCAACAGAGGAUUGAGCAUCA
B22: chr1:233671823:233671924:+|3pUTR|ENSG00000135750|msi1|FALSE|unique (ssRNA)
RNA: GGGAGUUCUACAGUCCGACGAUCUGCUGCUGUGGUUAGAAGCAGAUUUUAUACUUUUAACUGGAAACUUUGGGGUUUGCAUUUAGAUCAUUUAGCUGAUGGCUAAAUAGCAAAAUUUAUAUUUAGAAGCAAAAAAAAAAAGCACAACAGAGGAUUGAGCAUCA

target: T1, UNK ZnF1-6 (called full-length); assay: nsRBNS (natural sequence RNA bind-n-seq); RBNS binding buffer (assumed for nsRBNS): 25 mM Tris pH 7.5, 150 mM KCl, 3 mM MgCl2, 0.01% Triton X-100, 500 ug/ml BSA, 20 U/ml SUPERase-In, 4 C; UNK is unkempt and MSI1 is Musashi-1; names of the RNAs are library labels; protein concentration not given here; high values mean tight binding

Binder | binding signal
B1 | 0.48 enrichment R
B2 | 1.06 enrichment R
B3 | 0.456 enrichment R
B4 | 0.631 enrichment R
B5 | 0.536 enrichment R
B6 | 3.43 enrichment R
B7 | 96.7 enrichment R
B8 | 4.54 enrichment R
B9 | 0.5 enrichment R
B10 | 3.92 enrichment R
B11 | 0.558 enrichment R
B12 | 0.588 enrichment R
B13 | 0.487 enrichment R
B14 | 0.934 enrichment R
B15 | 20.3 enrichment R
B16 | 12.5 enrichment R
B17 | 1.12 enrichment R
B18 | 0.502 enrichment R
B19 | 0.43 enrichment R
B20 | 0.697 enrichment R
B21 | 1.03 enrichment R
B22 | 5.04 enrichment R
